Experimental data as given in PubChem BioAssay AID1240 (Sanford-Burnham Center for Chemical Genomics, 2008).
About 800 (1.6%) of roughly 50,000 compounds showed an effect of 50% or more. The list shows a part of the results.

The compounds below were run against Bcl-2-like protein 10 (Homo sapiens) (UniProt Q9HD36) (assay: TR3 peptide-Bcl-B binding displacers, biochemical primary FP assay, phenotype converters (AID 1240;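 note: 0% = Bcl-B with tracer peptide and DMSO and 100% = tracer peptide lacking Bcl-B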)). Details: GST-Bcl-B / FITC-TR3 peptide fluorescence polarization; stronger effect = higher value; compound at 3.75 mg/L.
UniProt Q9HD36, sequence (Q9HD36 whole entry, looked up): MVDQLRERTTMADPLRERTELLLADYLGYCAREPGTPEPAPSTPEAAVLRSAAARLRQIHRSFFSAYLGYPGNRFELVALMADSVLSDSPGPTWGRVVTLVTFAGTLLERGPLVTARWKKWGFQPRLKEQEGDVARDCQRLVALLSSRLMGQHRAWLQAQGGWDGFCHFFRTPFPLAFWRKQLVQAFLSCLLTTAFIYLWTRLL
Work on O=C(Nc1ccc(-c2nnc(-c3ccccc3)o2)cc1)C(c1ccccc1)c1ccccc1 yielded a displacement of 16.7%. Compound Cc1sc2nc(NC(=O)c3ccccc3)sc(=O)c2c1C has a displacement of -5.9%. Compound CC(Oc1ccccc1)C(=O)NCCN1CCOCC1 (stereo not given) has a displacement of 2.2%. COc1cc(NC(=O)c2ccccc2Br)ccc1NC(=O)c1cc2ccccc2o1 was tested, and the displacement was 6.5%. Work on COc1ccc(C2=C/C(=C/c3ccc([N+](=O)[O-])o3)C(=O)O2)c(OC)c1 yielded a displacement of -28.4%. Compound CCOC(=O)c1c(C)[nH]c(N=Nc2cccc([N+](=O)[O-])c2)c1C has a displacement of 8.6%. O=C1CCCC(O)=C1C=NCc1cccnc1 gave a displacement of 23.3%. In the case of COc1ccc(C2C(C(C)=O)=C(O)C(=O)N2c2ccccn2)cc1 (stereo not given), the displacement is reported as -10.8%. In the case of Cc1cc(NCc2ccc3c(c2)OCO3)ccc1Br, the displacement is reported as 6.3%. Work on COCCN1C(=O)C(=O)/C(=C(/O)c2ccccc2)C1c1ccccc1Cl (stereo not given) yielded a displacement of -17.1%. Compound O=C1c2ccccc2C(=O)c2c1c(Cl)c(Cl)c(Cl)c2N1CCOCC1 has a displacement of -5.7%. In the case of O=C(/C=C/c1ccc(F)cc1)Nc1cccc(Cl)c1Cl, the displacement is reported as 17.9%. Work on CC(=O)N/N=C/c1cc(C)n(-c2cccc(Cl)c2Cl)c1C yielded a displacement of -0.7%. In the case of Cc1onc(-c2ccccc2Cl)c1C(=O)Nc1ccc(S(=O)(=O)Nc2ncccn2)cc1, the displacement is reported as 9.1%. CCOc1ccc(NC(=O)c2ccc(N3C(=O)c4cccnc4C3=O)cc2)cc1 was tested, and the displacement was 14.1%. For O=C(/C=C/c1ccc(-c2ccc(Cl)cc2)o1)Nc1cccnc1, the displacement was 14.7%. Cc1ccc(/C=C(\C#N)c2nc(-c3ccc4c(c3)OCO4)cs2)o1 was tested, and the displacement was -60.3%. O=c1[nH]n(-c2cccc(Cl)c2)c(O)c1/C=C1/C=Nc2ccccc21 gave a displacement of 10%. Compound CC(=O)c1ccc(NC(=O)CSc2nc(C)cc(C)n2)cc1 has a displacement of -6.6%. COc1cc(NC(=O)c2ccc(-c3ccccc3[N+](=O)[O-])o2)ccc1NC(=O)c1ccco1 showed a displacement of 7.1%. For CC(=O)CC1(O)C(=O)N(Cc2ccc3c(c2)OCO3)c2ccccc21 (stereo not given), the displacement was -1.2%. Work on COc1ccc(C(=O)Oc2cccc3cccnc23)cc1Cl yielded a displacement of 16.6%. For Cc1ccc(N2C(=O)CC(NCc3cccnc3)C2=O)cc1 (stereo not given), the displacement was 2.3%. For Cc1ccc(C23CC4CC(CC(NC(=O)Nc5ccccn5)(C4)C2)C3)cc1, the displacement was -7%. Work on O=C1CNC(=O)/C1=C/c1ccc(Br)cc1 yielded a displacement of 17.7%. Cc1cccc(C)c1NC(=O)CSc1nc2ccc(NC(=O)CSc3nccn3C)cc2s1 showed a displacement of -8.5%. In the case of CCOC(=O)c1ccccc1NC(=O)COc1ccc(C)c(C)c1, the displacement is reported as -8.6%. Compound COc1ccccc1Cc1noc(COc2ccc3ccccc3c2)n1 has a displacement of -2.2%. In the case of O=C(CSc1nnc(-c2cccc(Cl)c2)n1-c1ccccc1)NCc1ccccc1, the displacement is reported as -17.5%. For Cc1cc(C)n(CC(O)COCc2ccccc2)n1 (stereo not given), the displacement was -3.8%. COc1ccc(C(NC(=O)CN(c2cccc(Cl)c2)S(=O)(=O)c2ccccc2)c2ccccc2)cc1 (stereo not given) gave a displacement of -4.3%. In the case of Cc1ccc(C(NC(N)=O)c2ccccc2)cc1C (stereo not given), the displacement is reported as 5.7%. Compound CC(Oc1ccccc1)C(=O)Nc1cc(C(N)=O)cc(C(N)=O)c1 (stereo not given) has a displacement of 1.2%. CCOc1ccccc1-n1c(O)c(C=C2C=CC=N2)c(=O)[nH]c1=O showed a displacement of 12.7%. Compound COc1ccc(C=Nc2ccccc2Cl)c2ccccc12 has a displacement of -1.7%. COc1ccc(N(CC(=O)N2CCN(c3ccccc3OC)CC2)S(=O)(=O)c2ccccc2)c(OC)c1 gave a displacement of 8.6%. O=C(Nc1nc(-c2ccc(Cl)cc2)cs1)c1ccc2c(c1)OCO2 gave a displacement of 13.6%. O=C(NCCCNc1ccc(C(F)(F)F)cc1[N+](=O)[O-])c1cc(F)c(F)cc1Cl was tested, and the displacement was 12.3%. For COc1cccc(C(=O)Nc2ccc(I)cc2Cl)c1, the displacement was 8.2%. In the case of Cc1ccc(OCC(=O)Nc2ccc(S(=O)(=O)Nc3onc(C)c3C)cc2)c(C)c1, the displacement is reported as 0.6%. For COc1cc(C2CC(=O)NC(SCc3ccccc3)=C2C#N)cc(Br)c1O (stereo not given), the displacement was -3.6%. Work on CC(C)NC(=O)NCC12CC3CC(C1)CC(CNC(=O)NC(C)C)(C3)C2 yielded a displacement of -15.5%. CC(C)(C)c1cc(N2C(=O)C(=O)/C(=C(\O)c3ccccc3)C2c2cccc([N+](=O)[O-])c2)no1 (stereo not given) showed a displacement of -10.8%. Compound Cc1ccc(/C=C/C(=O)Nc2cccc([N+](=O)[O-])c2)o1 has a displacement of 10.1%. Work on Cc1ccc(C)c(N2C(=O)CC(Cc3ccc(Cl)cc3)C2=O)c1 (stereo not given) yielded a displacement of -16.4%. CC[n+]1c(/C=C/c2ccc([N+](=O)[O-])cc2)sc2ccccc21 showed a displacement of -3.4%. Compound COc1ccc(C(N=C2NS(=O)(=O)c3cc([N+](=O)[O-])ccc32)c2ccccc2)cc1 (stereo not given) has a displacement of -0.4%. For COc1ccc(C2(C(=O)Nc3ncccc3C)CCCC2)cc1OC, the displacement was -2.7%. O=C1N/C(=C\c2ccc(O)cc2)C(O)=C1C=NCc1ccccc1 was tested, and the displacement was -3.9%. With Cc1cccc(OCC(=O)O/N=C(\N)c2ccc(Cl)cc2)c1 the displacement was 1.8%. Cc1ccc2[nH]c(C)c(CN3CCOCC3)c(=O)c2c1 gave a displacement of 9.4%. CN(Cc1ccccc1)C1CC(=O)N(c2ccc(F)cc2)C1=O (stereo not given) showed a displacement of -6.6%. Compound COc1ccccc1NC(=O)CSc1ncn[nH]1 has a displacement of 2.5%. COc1ccc(/C=C2\SC(=O)N(c3c(C)n(C)n(-c4ccccc4)c3=O)C2=O)cc1OC showed a displacement of -2.5%. CCOC(=O)c1c(C)n(CCc2ccccc2)c2ccc(O)cc12 was tested, and the displacement was 7.6%. Compound C=CCn1c(=O)[nH]c(=O)n(CC=C)c1=O has a displacement of 2.7%. Work on O=C(N1CCN(C(=O)C23CC4CCC(CC(C4)C2)C3)CC1)C12CCC3CC(CC(C3)C1)C2 yielded a displacement of 11.4%. CC1(C)Cc2ccccc2-c2nnnn21 showed a displacement of 11.1%. In the case of O=C(COc1ccccc1Cl)NCc1ccco1, the displacement is reported as -5.5%. Work on CCOC(=O)c1c(C)nn(C2CCCCC2)c1N yielded a displacement of -3.3%. Compound CCOC(=O)C1=C(C)S/C(=C\N(C)C)C1=O has a displacement of 7.4%. For CCOc1ccc2c(=O)c(-c3nc4ccccc4s3)coc2c1, the displacement was 7.8%. For Cc1ccc2c(c1)c1c3n2CCN(C(C)c2ccccc2)C3CCC1 (stereo not given), the displacement was -28.7%. CC1CN(c2ccc([N+](=O)[O-])cc2Cl)CCN1S(C)(=O)=O (stereo not given) gave a displacement of -7.5%. For O=c1oc2ccc(O)c(-c3ccccc3Cl)c2s1, the displacement was 15.5%. Cc1sc2ncn(/N=C/C=C3\N(C)c4ccccc4C3(C)C)c(=O)c2c1C was tested, and the displacement was 75.7%. With CSc1nnc2n(-c3ccccc3)c(=O)c3c4c(sc3n12)CC(C(C)(C)C)CC4 (stereo not given) the displacement was 1.2%. In the case of CCN(CC)c1ccc(NC(=O)c2ccc3c(c2)OCCO3)cc1, the displacement is reported as 14.9%. In the case of Cc1cc(OCC(=O)Nc2cccc(Cl)c2Cl)ccc1Br, the displacement is reported as 2.9%. For Cc1cc([N+](=O)[O-])ccc1-c1ccc(/C=C2\SC(=O)N(c3cccc(Cl)c3)C2=O)o1, the displacement was 0.7%.
